Assay results reported in PubChem BioAssay AID485364 (National Center for Advancing Translational Sciences (NCATS), 2010).
Among all 360,000 compounds or so, about 11,000 (3.1%) were called active. Inconclusive results, whose numbers are uncertain, are shown with a selection of clear calls. Calls come from the whole dose curve; as a rule, active = well fitted inhibition curve with a large enough effect; inconclusive = small, poorly fitted or top-dose-only effect; inactive = no such curve, though single readings can be large or run the other way. Potencies of inconclusive entries are left out as doubtful fits.

Each compound was assayed against Schistosoma mansoni thioredoxin glutathione reductase (TGR) (UniProt Q962Y6) (assay: qHTS Assay for the Inhibitors of Schistosoma Mansoni Peroxiredoxins). Details: purified TGR, DTNB reduction, TNB absorbance 405 nm; series mostly up to 114 µM.
Summary of the method: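 First, TGR (20 nM dispensed) and NADPH were mixed with compound. Second, a 15 min room-temperature incubation followed. Third, further NADPH and then DTNB were added to start the reaction. Finally, TNB absorbance was monitored kinetically.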
Note: nearly all actives have a fitted effect of over 60% in size.
Potency is the fitted concentration of half-maximal effect; tags give direction and shape of the fitted curve.

| Compound | Potency |
| --- | --- |
| Cc1cc(S(=O)(=O)NCc2ccccn2)c(Cl)cc1Cl | inconclusive [inhibitor, partial curve, poor fit] |
| CC(C)c1ccc(C(C(=O)NC2CCCCC2)N(C(=O)c2ccccn2)c2cccnc2)cc1 (stereo unspecified) | inactive |
| O=C1CC(c2ccccc2)Cc2[nH]c(=O)c(C(=O)Nc3ccc(OC(F)(F)F)cc3)cc21 (stereo unspecified) | inactive |
| CCOC(=O)CSc1nc(-c2ccccc2)cc(C(F)(F)F)n1 | inconclusive [inhibitor, single point] |
| CC1(C)CC(=O)C2=C(C1)OC1=C(C(=O)CC(C)(C)C1)C2c1ccc(O)cc1O | active: 22.4 µM |
| CCCN1CC=C2C(C#N)=C(N)C(C#N)(C#N)C(c3cc(OC)ccc3OC)C2C1 (stereo unspecified) | inconclusive [inhibitor, single point] |
| O=c1c2c(-c3ccccc3)csc2nc2c3ccccc3c(NCCN3CCOCC3)nn12 | inconclusive [inhibitor, partial curve] |
| Cc1ccc(C)c(Cn2c(C(C)NC(=O)c3ccc(F)cc3)nc3ccccc32)c1 (stereo unspecified) | inconclusive [inhibitor, single point] |
| CC1CCC(NC(=O)Cn2c(=O)oc3ccccc32)CC1 (stereo unspecified) | inconclusive [inhibitor, full curve] |
| CCOC(=O)C(C(=O)Nc1ccccc1)C1CCCCC1 (stereo unspecified) | inactive |
| COc1ccc(CN(C(=O)CNC(=O)c2ccco2)C(C(=O)NC2CCCC2)c2ccco2)cc1 (stereo unspecified) | inconclusive [inhibitor, partial curve] |
| CC(C)Cn1nc(C(=O)NCc2ccccc2CN2CCCC2)c2ccccc2c1=O | active: 28.2 µM |
| CC(NC(=O)Cc1ccc(Br)cc1)c1ccccc1 (stereo unspecified) | inconclusive [inhibitor, full curve, poor fit] |
| O=C(COC(=O)c1cccs1)NCc1ccco1 | inconclusive [inhibitor, single point] |
| C=CCN1C(=O)NC(=O)/C(=C/c2ccc(OC)c(CSc3ccccn3)c2)C1=O | inconclusive [inhibitor, partial curve, poor fit] |
| Cc1cc(C)cc(N2CN=C3SCC(=O)N3C2)c1 | inconclusive [inhibitor, single point] |
| C=C(C)CSc1cc(C)c(C#N)c2nc3ccccc3n12 | active: 3.16 µM |
| O=C1CSC(=S)N1/N=C/c1ccc(O)c([N+](=O)[O-])c1 | active: 3.55 µM |
| Nc1nc(Nc2cccc(C(F)(F)F)c2)sc1C(=O)c1ccccc1 | inconclusive [inhibitor, single point] |
| COC(=O)c1c(C)oc(C)c1S(=O)(=O)N(C)C1CCCCC1 | active: 44.7 µM |
| COc1ccc(NC(=O)c2cc3n(n2)C(C(F)(F)F)CC(c2ccco2)N3)cc1 (stereo unspecified) | inactive |
| Cc1ccc(CNC(=O)c2ccc(S(=O)(=O)N(C)C)cc2)n1C | inconclusive [inhibitor, partial curve] |
| CCc1ccc2[nH]c(=O)c(C(c3nnnn3CCOC)N3CCN(c4ccccc4F)CC3)cc2c1 (stereo unspecified) | inconclusive [inhibitor, full curve, poor fit] |
| CCc1ccc2[nH]c(=O)c(C(c3nnnn3CC3CCCO3)N3CCN4CCCC4C3)cc2c1 (stereo unspecified) | inconclusive [inhibitor, full curve] |

| Compound | Potency |
| --- | --- |
| Clc1ccc2c(NCc3ccccn3)ncnc2c1 | inactive |
| O=C(NNc1ccc(F)cc1F)C1CCC1 | inconclusive [inhibitor, partial curve] |
| CCn1c(-c2cc(C3CC3)nc3ccccc23)n[nH]c1=S | active: 44.7 µM |
| Cc1cc(NC(=O)CSc2nnc3ccc(-c4ccc(F)cc4)nn23)no1 | inactive |
| CC(=O)c1cccc(NC(=S)NC(=O)Cc2ccccc2)c1 | inconclusive [inhibitor, full curve] |
| COc1ccc(C2=Nc3ccc(F)cc3NC(c3cccc(C(F)(F)F)c3)=N2)cc1 | inconclusive [inhibitor, single point] |
| CCOC(=O)c1ccc(NC(=S)NN2CCOCC2)cc1 | inconclusive [inhibitor, full curve, poor fit] |
| CC(C)(C)c1ccc(C(=O)NCC(c2ccco2)S(=O)(=O)c2ccc(F)cc2)cc1 (stereo unspecified) | active: 11.2 µM |
| CCCC(c1nnnn1CCOC)N1CCN(c2cccc(OC)c2)CC1 (stereo unspecified) | inconclusive [inhibitor, full curve, poor fit] |
| O=c1cc(O)n(Cc2ccc(F)cc2)c(=O)[nH]1 | inconclusive [inhibitor, full curve, poor fit] |
| CCOC(=O)c1cccc(NS(=O)(=O)c2cc(-c3cnc(C4CC4)o3)ccc2C)c1 | inactive |
| COC(=O)c1c(SCC(=O)NC2CCCCC2)[nH]c2ccccc2c1=O | inconclusive [inhibitor, partial curve] |
| C/C(=C\C(=O)c1ccccc1)Nc1cccc(O)c1 | inconclusive [inhibitor, partial curve] |
| Cc1c(/C=N/NC(=O)CNc2ccccc2)c2ccccn2c1C(=O)c1ccc(Cl)cc1 | inactive |
| CCOc1ccc(C2C(C(=O)c3ccco3)=C(O)C(=O)N2CCN2CCOCC2)cc1 (stereo unspecified) | inconclusive [inhibitor, full curve] |
| O=C1NN(c2ccc(F)cc2)C(=O)/C1=C\C=C\c1ccco1 | inconclusive [inhibitor, partial curve] |
| O=C(CSC1c2ccccc2C(=O)N1c1ccccc1)N1CCOCC1 (stereo unspecified) | inconclusive [inhibitor, single point] |
| CCCCn1c(N)c(C(=O)OCCOC)c2nc3ccccc3nc21 | inactive |
| CCN(CC)c1ccc(CNc2ccc3c(c2)ncn3CC)cc1 | inconclusive [inhibitor, partial curve] |
| COCCNc1ncnc2c1[nH]c1ccccc12 | inactive |
| Cc1cc(C)nc(SCc2nnc(SCC(=O)Nc3ccc(C)c(C)c3)n2Cc2ccco2)n1 | inconclusive [inhibitor, full curve] |
| O=C(Nc1nnc2n1CCS2)c1ccccc1C(F)(F)F | inactive |
| O=C(NCCc1ccc(F)cc1)C(=O)NCC(c1ccco1)S(=O)(=O)c1cccs1 (stereo unspecified) | inconclusive [inhibitor, partial curve] |
| O=C(Nc1cccc(C(F)(F)F)c1)c1cc(-c2ccc3c(c2)OCCO3)on1 | inactive |

| Compound | Potency |
| --- | --- |
| Cc1ccc(C)c(SCC(=O)Nc2cc(S(=O)(=O)N3CCOCC3)ccc2C)c1 | inconclusive [inhibitor, partial curve] |
| COC(=O)C1=CN(c2ccc(OC)cc2)C=C(C(=O)OC)C1c1cccc(F)c1 | inconclusive [inhibitor, full curve, poor fit] |
| Cn1nc(-c2ccc(Cl)cc2)c2cc(C(=O)NCc3ccco3)sc21 | inconclusive [inhibitor, partial curve] |
| CCCSc1ccc([C@@H]2[C@H]3C(=O)N(CC)C(=O)[C@H]3[C@]3(C(=O)OC)CCCCN23)cc1 | inconclusive [inhibitor, partial curve] |
| CC(NC(=O)C1CCC(C(C)(C)C)CC1)C(c1ccccc1)N1CCOCC1 (stereo unspecified) | inactive |
| COc1ccc(C(C)C)cc1S(=O)(=O)Nc1ccccn1 | inactive |
| Cc1onc(C(=O)Nc2c(C)n(C)n(-c3ccccc3)c2=O)c1[N+](=O)[O-] | inconclusive [inhibitor, partial curve] |
| O=S1(=O)C=CC(N2CCOCC2)C1 (stereo unspecified) | inconclusive [inhibitor, partial curve] |
| CN(Cc1ccccc1)C(=O)CCS(=O)(=O)c1ccc2c(c1)n(C)c(=O)c(=O)n2C | active: 22.4 µM |
| O=C(O)[C@H]1CCCC[C@H]1C(=O)Nc1ccc(S(=O)(=O)N2CCOCC2)cc1 | inactive |
| Cc1ccc(C)c(N2C(=O)C3C4C=CC(CC4)C3C2=O)c1 (stereo unspecified) | inconclusive [inhibitor, partial curve] |
| c1ccc(C2=Nn3c(nnc3-c3ccccn3)SC2)cc1 | inconclusive [inhibitor, single point] |
| O=C(CSC1CC(=O)N(CC(c2ccccc2)c2ccccc2)C1=O)Nc1ccc(Cl)cc1 (stereo unspecified) | inconclusive [inhibitor, full curve, poor fit] |
| COc1ccc(C2NC(=O)CCC2[N+](=O)[O-])c(OC)c1 (stereo unspecified) | inconclusive [inhibitor, single point] |
| Cc1cccc(NC(=O)CSc2nc(-c3ccco3)cc(C(F)(F)F)n2)c1C | inactive |
| S=C(NCc1cccs1)Nc1ccccc1 | inconclusive [inhibitor, partial curve, poor fit] |
| Cc1ccc(NNC2CC(=O)N(c3cccc(Cl)c3)C2=O)cc1 (stereo unspecified) | active: 44.7 µM |
| Cc1cc(N2C(=O)C=CC2=O)c([N+](=O)[O-])cc1C | active: 0.708 µM |
| COc1ccc(/C=N/c2c(-c3ccco3)nc3ccccn23)cc1OC | inconclusive [inhibitor, partial curve] |
| Cc1nc2ccccc2c(=O)n1-c1ccc(NS(=O)(=O)c2ccc(F)cc2)cc1 | inactive |
| CC(C)NC(=O)c1cc2cc(Br)ccc2oc1=O | inactive |
| O=[N+]([O-])c1cc(NCCO)c(N2CCCCCC2)c2nonc12 | inconclusive [inhibitor, single point] |
| Cc1oc(C)c2c(=O)ccc3c(c12)OC(N)=C(C#N)C3c1ccccc1Cl (stereo unspecified) | inconclusive [inhibitor, partial curve] |
